The results in this text go back to PubChem BioAssay AID1865 (National Center for Advancing Translational Sciences (NCATS), 2009).

In all, about 280,000 compounds went through this assay and about 540 (0.19%) were called active. Another 2% or so got no clear call; they are omitted. Calls follow the shape of the dose curve; as a rule, active = well fitted activation curve with a large enough effect; inconclusive = small, poorly fitted or top-dose-only effect; inactive = flat fitted curve, though single readings scatter. This is a selection; strong and weak results do not stand in their true shares. Some compounds were tested as several samples or in several runs, with calls that do not always agree.
Potency is read from the fitted curve at half-maximal effect.

The assay is described as follows: Quantitative High-Throughput Screen for Regulators of Epigenetic Control. Also: nearly all actives have a fitted effect of over 60% in size. As to GFP activation: % of control where 0% means no effect. Particulars: murine LDR cells, GFP reporter derepression, 30 h; series mostly up to 53.9 µM; GFP activation: at the top concentration. The text has this:
NIH Molecular Libraries Screening Centers Network [MLPCN] NIH Chemical Genomics Center [NCGC] MLSCN Grant: 1 X01 MH079860-01 Assay Provider: Elisabeth D. Martinez, University of Texas SW Medical Center NCGC Assay Overview: The Locus Derepression (LDR) assay detects the derepression or induction of a GFP reporter that is stably integrated in a genomic region of murine cells that is presumably silenced. Transcription of the GFP reporter is controlled by a CMV promoter, which normally is constitutively active. However, this cell line, termed LDR, was selected for lack of constitutive production of GFP. GFP production can be induced by incubating the cells with histone deacetylase or DNA methyltransferase inhibitors (Martinez et al., 2006). Compounds that derepress or induce this reporter locus are identified by enumerating GFP positive cells using a laser-scanning microplate cytometer (Auld et al., 2006). This assay was screened against the MLSMR earlier (AID 597; (Johnson et al., 2008) and has been rescreened here against the expanded collection.
NCGC Assay Protocol Summary: Three hundred LDR cells in 5 uL per well were dispensed into black, clear-bottom 1536-well plates. Twenty-three nL compound was transferred to the assay plate and cells were incubated 30 hours at 37 C. Medium was removed, cells were washed two times with PBS, and GFP-positive cells were enumerated as fluorescent objects between the sizes of 20 to 120 um width and depth using an Acumen Explorer. References Auld, DS, Johnson, RL, Zhang, YQ, Veith, H, Jadhav, A, Yasgar, A, Simeonov, A, Zheng, W, Martinez, ED, Westwick, JK, Austin, CP, Inglese, J (2006). Fluorescent protein-based cellular assays analyzed by laser-scanning microplate cytometry in 1536-well plate format. Methods Enzymol 414: 566-89. Johnson, RL, Huang, W, Jadhav, A, Austin, CP, Inglese, J, Martinez, ED (2008). A quantitative high-throughput screen identifies potential epigenetic modulators of gene expression. Anal Biochem 375: 237-48. Martinez, ED, Dull, AB, Beutler, JA, Hager, GL (2006). High-content fluorescence-based screening for epigenetic modulators. Methods Enzymol 414: 21-36.
On to `COc1ccc(C2(CNC(=O)CCC(=O)O)CCCC2)cc1`, for which the “GFP activation” value is inactive: 1.28%.
For `Cc1oc(-c2cccc(C(F)(F)F)c2)nc1CN1CCOCC1`, the Potency is active: 11.2 µM.
Consider `C=CCOc1ccc(/C(O)=C2\C(=O)C(=O)N(CCOC)C2c2cccnc2)cc1` (stereo not given), for which the “GFP activation” value was inactive: -3.17%.
In the case of `CC(C)OC(=O)CN1C(=O)S/C(=C/c2ccc(N3CCCCC3)o2)C1=O`, the Potency is active: 11.2 µM.
On to `CCCCN(CCCNC(=O)CN1C(=O)COc2ccccc21)c1ccccc1`, for which the “GFP activation” value was inactive: 7.94%.
For `COC(=O)c1ccc(C23CC4(C2)[C@H](CN(Cc2ccc(-c5ccccc5)cc2)[C@@H]4c2ccccc2)C3c2ccc(Cl)nc2)cc1` (stereo not given in full), the “GFP activation” value was inactive: 0.332%.
Take `COc1ccnc(CSC(N)=Nc2ccccc2OC)c1`: the Potency is active: 3.55 µM.
With `CCc1nnc(NC(=O)c2ccc(N3C(=O)CCC3=O)cc2)s1`, the “GFP activation” value is inactive: -1.01%.
Take `CCCCOCC(O)CN1CCN(C(C)=O)CC1` (stereo not given): the “GFP activation” value is inactive: -1.05%.
For `CCc1cc2c(nc1CC)CCN(CC/C(C)=N/O[C@@H](C)c1cc(-c3c(C)cc(C)cc3C)no1)C2`, the GFP activation was inactive: 0% [at 10.1 µM].
As for `O=C(Nc1ccc(N2CCOCC2)cc1)c1cc2ccccc2o1`, the “GFP activation” value is inactive: -5.77%.
For `CCCC[C@@H]1C[C@H]1C(NC(=O)c1ccco1)c1ccc(Cl)cc1` (stereo not given in full), the “GFP activation” value was inactive: 5.32%.
As to `CC(NC(=O)c1cc2ccccc2o1)c1ccccc1` (stereo not given), the Potency is active: 15.8 µM.
Consider `Cc1ccc2oc(=O)c3cnn(CC(=O)NCCC(C)C)c3c2c1`, for which the “GFP activation” value is inactive: 2.56%.
With `C=C1C(=O)O[C@@H]2C3OC3(C)CC/C=C(\C)CC[C@@H]12` (stereo not given in full), the “GFP activation” value is inactive: 4.48%.
Turning to `CCN(CC)[C@@H](C)CN1c2ccccc2Sc2ccccc21`, the “GFP activation” value is inactive: -0.295% [at 16.9 µM].
Take `O=C(/C=C\c1ccco1)Oc1cccc2cccnc12`: the “GFP activation” value was inactive: 8.48%.
In the case of `CCOCCCNC(=O)C(c1ccc(OC)cc1)N(Cc1cccs1)C(=O)CNC(C)=O` (stereo not given), the “GFP activation” value is inactive: -1.12%.
On to `CCOC(=O)N1CCN(c2c(NCCCOC(C)C)c(=O)c2=O)CC1`, for which the “GFP activation” value is inactive: -1.01%.
Take `CC12C(=O)OC(=O)C1(C)C1CCC2O1` (stereo not given): the Potency entry was “inactive”.
As to `CCOC(=O)c1ccc(NC(=O)CSc2nc(-c3ccc(F)cc3)cc(C(F)(F)F)c2C#N)cc1`, the Potency is active: 7.08 µM.
`CCc1ccccc1NC(=O)c1cnn2c(C(F)(F)F)cc(-c3ccc(OC)c(OC)c3)nc12`: the Potency is active: 12.6 µM.
Turning to `Cc1nc(SCCO)c2oc3ccccc3c2n1`, the “GFP activation” value was inactive: 2.58%.
Consider `COc1cc(O)c(C(=O)/C=C/c2ccccc2)c(OC)c1`, for which the “GFP activation” value was inactive: 5.33%.
As for `CCCCOC(=O)c1cc2c(cn1)[nH]c1ccccc12`, the Potency result is “inactive”.
Turning to `O=C(COc1ccc(Cl)cc1Br)NNC(=O)C(=O)N1CCCCC1`, the “GFP activation” value was inactive: 0%.
As for `CC(=O)Nc1ccc(C2NC(=O)c3ccccc3O2)cc1` (stereo not given), the “GFP activation” value is inactive: -8.77%.
`COc1cc(C(=O)Nc2ccc(N(C)C)cc2)cc(OC)c1OC`: the “GFP activation” value is inactive: -5.48%.
Same read-out and setting: for `CC(=O)Nc1ccccc1NC(=O)CC(C)(C)C` the value was inactive: 0%.
In the case of `COC(=O)[C@@H](NC(=O)NCc1ccccc1Cl)C(C)C`, the “GFP activation” value was inactive: -11.1%.
Regarding `Cc1ccc2cc3c(N)c(C(=O)N4CCOCC4)sc3nc2c1`, the “GFP activation” value is inactive: -6.19%.
Regarding `O=C1c2c(O)ccc(O)c2C(=O)c2c(NCCNCCO)ccc(NCCNCCO)c21`, the Potency entry was “inactive”.
On to `CCOc1ccc(C(=O)N2CCN(C(=O)c3ccco3)CC2)cc1OCC`, for which the “GFP activation” value was inactive: -12.7%.
Take `CCn1c(C)cc(/C=C2\NC(=O)N(CC(=O)Nc3ccc(F)cc3)C2=O)c1C`: the Potency is active: 25.1 µM.
Turning to `C[C@@]12C(=O)OC(=O)[C@@]1(C)[C@@H]1CC[C@@H]2O1`, the “GFP activation” value is inactive: 2.6%.
Turning to `CC(C)OCc1cc(CN2CCN(c3ccccc3)CC2)c(O)c2ncccc12`, the Potency was active: 2 µM.
As to `CCN(CC)S(=O)(=O)c1ccc2oc(SCc3ccc(F)cc3)nc2c1`, the “GFP activation” value was inactive: -19%.
For `CCCCCCCCN[C@@H](C)[C@H](O)c1ccc(SC(C)C)cc1`, the “GFP activation” value is inactive: 1.37% [at 16.9 µM].
As to `COc1cc(/C=C(\C#N)c2nc3ccccc3[nH]2)ccc1OC(=O)c1ccco1`, the “GFP activation” value was inactive: 8.96%.
On to `CN(C)c1ccc(/C=C2\C(=O)Nc3ccccc32)cc1`, for which the Potency entry is “inactive”.
In the case of `CCOC(=O)COc1ccc(Br)cc1/C=C\c1[nH]c(=O)[nH]c(=O)c1[N+](=O)[O-]`, the “GFP activation” value is inactive: 0%.
As for `OCc1ccc(-c2nn(Cc3ccccc3)c3ccccc23)o1`, the “GFP activation” value is inactive: -1.22%.
Still for that read-out and setting: with `CC(C)Cn1c(SCC(=O)c2ccc(Cl)s2)nnc1-c1ccco1` the figure was inactive: 4.41%.
As to `CC(C)N1CCc2c(sc(NC(=O)c3cc(-c4cccs4)nc4ccccc34)c2C(N)=O)C1`, the Potency was active: 17.8 µM.
With `COC(=O)c1ccc(N2C(=O)CC(N3CCN(C(=O)c4ccco4)CC3)C2=O)cc1` (stereo not given), the “GFP activation” value is inactive: -14.3%.
`Cc1nc(CSc2nsc(/C=C/N(C)C)c2C#N)cs1`: the Potency was active: 6.31 µM.
As for `CC(C)N(CCC(=O)c1ccc2ccccc2c1)Cc1ccccc1`, the “GFP activation” value was inactive: 9.46%.
For `Cc1cc2ccccc2n2c(SCC(=O)N3CCN(C(=O)c4ccco4)CC3)nnc12`, the “GFP activation” value was inactive: 14.7%.
`C[C@@H]1OC2C3=C(C(=O)[C@H]4O[C@@H]4[C@H]3O)[C@@H]1[C@H]1[C@H](C)OC=C3[C@H](O)[C@H]4O[C@H]4/C(=N\OCc4ccccc4)[C@@]321`: the GFP activation is inactive: 4.24% [at 10.1 µM].
Take `CCCCCCc1cc2cc(-c3nnc(-c4ccc(C)cc4)o3)c(=O)oc2cc1O`: the Potency was active: 2.24 µM.
